Experimental data published in PubChem BioAssay AID1671188 (National Center for Advancing Translational Sciences (NCATS), 2021).
“And” between values parts separate entries of the source, which are not always exact repeats. Equal values may be shown once. The whole screen tested about 100,000 compounds, of which about 250 (0.25%) were called active. The shares of active, inactive and inconclusive entries below differ from those in the screen. The call rests on the fitted dose curve; in most records, active means well fitted inhibition curve with a large enough effect; inconclusive means small, poorly fitted or top-dose-only effect; inactive means flat fitted curve, though single readings scatter. A potency beside an inconclusive call is a rough fit, not a confirmed value.

biological target: Alanine aminotransferase 2 (Homo sapiens) (UniProt Q8TD30); test: Primary qHTS assay for inhibitors of Glutamate pyruvate transaminase 2 (GPT2); details: Recombinant GPT2, coupled pyruvate oxidase/HRP Amplex Red fluorescence; activity change, negative = inhibition: at 57.7 µM (top of the series) unless noted; series mostly up to 57.7 µM; further: nearly all actives have a fitted effect of over 60% in size
UniProt Q8TD30, sequence (Q8TD30 whole entry, looked up): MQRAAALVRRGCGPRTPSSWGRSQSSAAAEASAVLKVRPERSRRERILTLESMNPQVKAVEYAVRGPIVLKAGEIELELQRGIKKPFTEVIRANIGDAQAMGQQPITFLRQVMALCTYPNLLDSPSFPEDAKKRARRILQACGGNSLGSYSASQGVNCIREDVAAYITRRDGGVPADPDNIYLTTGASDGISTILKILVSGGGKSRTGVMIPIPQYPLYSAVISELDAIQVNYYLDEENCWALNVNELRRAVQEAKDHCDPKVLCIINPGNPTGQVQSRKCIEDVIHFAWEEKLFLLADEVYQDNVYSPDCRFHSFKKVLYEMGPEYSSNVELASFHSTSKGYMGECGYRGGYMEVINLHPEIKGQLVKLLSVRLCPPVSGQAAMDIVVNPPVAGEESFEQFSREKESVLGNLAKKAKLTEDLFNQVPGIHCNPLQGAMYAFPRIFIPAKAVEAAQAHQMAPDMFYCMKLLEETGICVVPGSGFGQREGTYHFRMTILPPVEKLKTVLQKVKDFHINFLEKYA
Method: Assay Provider: Zhenghe John Wang Ph.D.
Case Western Reserve University, Cleveland OH
Glutamate pyruvate transaminase 2 (GPT2) catalyzes the reversible transamination of glutamate and pyruvate to provide a-ketoglutarate and alanine. We have optimized an assay for GPT2 enzymatic activity that couples pyruvate formation to detection of fluorescence using an established pyruvate oxidase/horseradish peroxidase / Amplex Red system.
Screening conditions were 250uM a-KG, 2mM L-alanine, and 10ng/uL GPT2 in […] of solution; 10uL of Amplex reaction mix (outlined below) were added so that final concentrations of Amplex reagents in 50uL were 0.2mM ThPP, 0.2U/mL PO and HRP, and 50uM Amplex.
NOTE: The volume of GPT2 in the system depends on the activity of it. The activity is different every batch. You need to test the activity before the assay. For full plate assay with automation, plate 20uL of GPT2 buffer to pin into, then add 10uL of GPT2 dilution followed immediately by 10uL of substrate dilution. 2 Columns of the plate were devoted to GPT2 buffer ([…] PH7.5, 0.0001% Tween) + 50uM AOA (known GPT2 inhibitor) to serve as a positive control. Complete the assay as normal. Amplex-red buffer: […] PH7.5, 1 mM EDTA, 1 mM MgCl2.
1. Combine a-KG and L-alanine at desired concentrations and incubate for at least 10 minutes at 37C. Stocks of L-alanine and a-KG are diluted in distilled water. However, the stocks were diluted in GPT2 buffer for the assay.
2. Prepare GPT2 dilution at the desired concentration in GPT2 buffer.
3. Plate 40uL of GPT2 dilution with 40uL of substrate dilution and let incubate for 30 minutes at room temperature.
4. Add 20uL of Amplex reaction mix prepared as follows: 1.5uL 200U/mL Horseradish Peroxidase, 200mM Thiamine Pyrophosphate, 200U/mL Pyruvate Oxidase; 7.5uL 10mM Amplex Red; 288uL Amplex Buffer.
5. Incubate for 30 minutes at room temperature in the dark, then image using AM_Amplex_Fluorescence on plate reader nearest the window.
On the % scale 0 is the no-effect control and ±100 the full control effect; potency means the concentration at half of the fitted maximal effect; tags describe the fitted curve by direction and shape.

Q: How did the “activity change, negative = inhibition” value turn out when CCOCC1(C)COc2ccc(C(=O)Nc3ccc(Cl)cc3)cc2N1 (centres undefined) was run?
A: The value was inactive: -15.8% [at 88.5 µM].

Q: CCOc1cc(N2CCC(O)CC2)ccc1Nc1ncc2c(n1)N(C)c1ccccc1C(=O)N2C was tested. Which Potency did it give?
A: The Potency was active: 12.2 µM.

Q: How did the “activity change, negative = inhibition” value turn out when Cc1cccc(-c2nc3ccc(C(=O)NCc4ccccc4F)cc3o2)n1 was run?
A: The value was inactive: 0.141% [at 88.5 µM].

Q: COc1ccc2nc(C[C@@H]3C[C@@H](C(C)C)[C@H](CNC(=O)C4CCCCC4)C=C3C)[nH]c2c1 was tested. Which “activity change, negative = inhibition” value did it give?
A: The value was inactive: 2.41% [at 88.5 µM].

Q: How did the Potency turn out when CC[C@@]1([C@@H]2O[C@@H]([C@H]3O[C@@](O)(CO)[C@H](C)C[C@H]3C)C[C@H]2C)CC[C@H]([C@]2(C)CC[C@]3(C[C@H](O)[C@@H](C)[C@@H]([C@@H](C)[C@@H](OC)[C@H](C)C(=O)O)O3)O2)O1 was run?
A: Its Potency is inconclusive: 7.49 µM [inhibitor, single point].

Q: Cc1cn2nc(C(=O)N3CCN(c4ccccn4)CC3)cc2c(N2CCCC2)n1 was tested. Which Potency did it give?
A: Its Potency is inconclusive: 6.31 µM [inhibitor, single point].

Q: With O=C(NC1CCCCC1)NC1CCN(C(=O)N2CC3CC(C2)[C@H]2CCCC(=O)N2C3)CC1 (some centres undefined) as the compound, how does the Potency read?
A: The Potency was inconclusive: 3.16 µM [inhibitor, partial curve, poor fit].

Q: Which Potency does the source give for Nc1nc2ccc([N+](=O)[O-])cc2s1 here?
A: Its Potency is inconclusive: 70.8 µM [inhibitor, single point].

Q: Which Potency does the source give for CCOc1ccccc1NC(=O)N1CCCN(C)c2ccccc21 here?
A: The Potency was inconclusive: 0.708 µM [inhibitor, full curve, poor fit].

Q: With COc1ccc(CCCN2C(=O)O[C@@H]3CN(C4CCOCC4)C[C@@H]32)cc1 as the compound, how does the Potency read?
A: Its Potency is inconclusive: 6.31 µM [inhibitor, single point].

Q: COCCN[C@@H]1C[C@@H]2c3[nH]c4ccccc4c3C[C@@H](C(=O)OC)N2[C@H](c2cccc(OC)c2)C1 was tested. Which Potency did it give?
A: Its Potency is inconclusive: 35.5 µM [inhibitor, single point].

Q: With C[C@@H](Oc1ccc2[nH]nc(C=Cc3cnn(CCO)c3)c2c1)c1c(Cl)cncc1Cl as the compound, how does the Potency read?
A: The Potency was inconclusive: 43.2 µM [inhibitor, single point].

Q: How did the “outcome” value turn out when CN(C)C(=O)NC1CCN(c2nc3ncccc3o2)CC1 was run?
A: Its value is “inactive [at 88.5 µM]”.

Q: Which Potency does the source give for CN(Cc1cc(C2CC2)on1)Cc1nnc(C2CC(N)C2)n1C1CC1 (centres undefined) here?
A: Its Potency is inconclusive: 3.16 µM [inhibitor, partial curve, poor fit].

Q: O=C1Nc2ccccc2C12CN(CC1CCCCC1)C2 was tested. Which “activity change, negative = inhibition” value did it give?
A: The value was inactive: 2.52% [at 88.5 µM].

Q: CCN(CC)Cc1cnc2c(C(=O)N3CCC(N4CCCC4)CC3)cnn2c1 was tested. Which Potency did it give?
A: Its Potency is inconclusive: 4.47 µM [inhibitor, single point].

Q: With CC(=O)NCC(=O)N1Cc2ccccc2CC2(CCCCN2CC2CCNCC2)C1 (centres undefined) as the compound, how does the “activity change, negative = inhibition” value read?
A: Its value is inactive: -9.54%.

Q: For N#CC1CCN(C(=O)C2CN(c3ccccc3)C(=O)N2)CC1 (centres undefined), which “outcome” value is on record?
A: Its value is “inactive [at 88.5 µM]”.

Q: CCC1c2nccn2CCCN1C(=O)c1cc(C)n(CCCOC)c1C (centres undefined) was tested. Which Potency did it give?
A: The Potency was inconclusive: 25.1 µM [inhibitor, single point].

Q: With CN(Cc1ccc(OC(F)(F)F)cc1)Cc1cccn1C as the compound, how does the Potency read?
A: The Potency was inconclusive: 1 µM [inhibitor, single point].

Q: With COc1ccc(C(=O)N2CCCC(Nc3ccc(F)cc3)C2)c(OC)c1 (centres undefined) as the compound, how does the Potency read?
A: The Potency was inconclusive: 35.5 µM [inhibitor, single point].

Q: How did the Potency turn out when CNC(=O)CCn1ncc2cc(OCc3ccccc3-c3cc(Cl)ccc3OC)ccc21 was run?
A: The Potency was inconclusive: 5.01 µM [inhibitor, full curve, poor fit].

Q: COc1ccc(-c2nc(C3CC3)nc3c2CCN(Cc2ccc(C#N)cc2)CC3)cc1 was tested. Which “outcome” value did it give?
A: Its value is “inactive”.

Q: O=C(NCc1ccncc1)c1nc2c(o1)CCN(CCCc1ccccc1)CC2 was tested. Which “activity change, negative = inhibition” value did it give?
A: Its value is inactive: -0.091% [at 88.5 µM].

Q: How did the Potency turn out when O[C@@H]1C[C@@H](c2nc(Cc3ccccc3)no2)N(CCCc2ccccc2)C1 was run?
A: Its Potency is inconclusive: 56.2 µM [inhibitor, single point].

Q: For O=C(c1ccc(OCCN2CCCCC2)cc1)c1c(-c2ccc(O)cc2)sc2cc(O)ccc12, which Potency is on record?
A: The Potency was inconclusive: 39.8 µM [inhibitor, partial curve, poor fit] and active: 15.3 µM and active: 8.91 µM.

Q: Which Potency does the source give for CN(Cc1cccc(-c2nn[nH]n2)c1)C(=O)C1CCCN(CC(N)=O)C1 (centres undefined) here?
A: The Potency was inconclusive: 6.31 µM [inhibitor, single point].

Q: How did the Potency turn out when CNC(=O)c1ccc(N2C(=S)N(c3cnc(C#N)c(C(F)(F)F)c3)C(=O)C23CCC3)cc1F was run?
A: The Potency was inconclusive: 39.8 µM [inhibitor, single point].

Q: With CC(C)CN1C(=O)c2ccccc2C(C(=O)Nc2ccc(C(N)=O)cc2)C12CCCCC2 (centres undefined) as the compound, how does the Potency read?
A: The Potency was inconclusive: 28.2 µM [inhibitor, single point].

Q: How did the Potency turn out when O=C1[C@@H]2C[C@@H](O)CN2C2(CN(C3CCC(F)(F)CC3)C2)C(=O)N1Cc1cccc(Cl)c1 was run?
A: Its Potency is inconclusive: 2.51 µM [inhibitor, full curve, poor fit].

Q: For CN1C[C@H](NCc2ccc(F)cc2)CCC[C@@H](C(=O)NC2CC2)CC1=O, which “activity change, negative = inhibition” value is on record?
A: Its value is inactive: 3.84% [at 88.5 µM].

Q: How did the Potency turn out when COc1ccc(CC(=O)N2CCCN(c3cc(-c4ccc(F)cc4)[nH]n3)CC2)cc1 was run?
A: Its Potency is inconclusive: 39.8 µM [inhibitor, single point].

Q: With Cc1cc(C(=O)N2[C@@H]3CC[C@H]2CC(NC(=O)c2ccncc2)C3)nn1C (some centres undefined) as the compound, how does the Potency read?
A: Its Potency is inconclusive: 39.8 µM [inhibitor, partial curve, poor fit].

Q: For COCCN1CCC2(CCC1=O)CCN(C(=O)c1sccc1C)CC2, which Potency is on record?
A: The Potency was inconclusive: 6.31 µM [inhibitor, single point].

Q: With O=C1CC2(CCCC2)[C@H](O)C(=O)N1CCCCN1CCN(c2ncccn2)CC1 as the compound, how does the Potency read?
A: The Potency was inconclusive: 22.4 µM [inhibitor, partial curve, poor fit].

Q: For NC1CCC(Nc2cc(-c3cccc(NCc4cccc(F)c4)n3)c(Cl)cn2)CC1 (centres undefined), which Potency is on record?
A: Its Potency is inconclusive: 3.55 µM [inhibitor, single point].

Q: For O=C(c1cn[nH]c1-c1ccc(F)cc1)N1CCCC(Cc2noc(-c3ccccc3)n2)C1 (centres undefined), which “activity change, negative = inhibition” value is on record?
A: The value was inactive: 0.747%.

Q: Which “outcome” value does the source give for Cc1cccc(N2Cc3c(ncnc3N3CCN(c4ncccn4)CC3)N(C)CC2=O)c1 here?
A: Its value is “inactive”.

Q: With O=C(OC[C@H]1O[C@H](O[C@]2(CO)O[C@H](CO)[C@@H](O)[C@@H]2O)[C@H](O)[C@@H](O)[C@@H]1O)c1ccccc1 as the compound, how does the Potency read?
A: The Potency was inconclusive: 3.98 µM [inhibitor, single point].
